Source: patent US7105647 (WISCONSIN ALUMNI RESEARCH FOUNDATION, dated 2006)

B1: AH receptor nuclear translocator (ARNT), full length (other, human, UniProt P27540 1-789, looked up)
chain: MAATTANPEMTSDVPSLGPAIASGNSGPGIQGGGAIVQRAIKRRPGLDFDDDGEGNSKFLRCDDDQMSNDKERFARSDDEQSSADKERLARENHSEIERRRRNKMTAYITELSDMVPTCSALARKPDKLTILRMAVSHMKSLRGTGNTSTDGSYKPSFLTDQELKHLILEAADGFLFIVSCETGRVVYVSDSVTPVLNQPQSEWFGSTLYDQVHPDDVDKLREQLSTSENALTGRILDLKTGTVKKEGQQSSMRMCMGSRRSFICRMRCGSSSVDPVSVNRLSFVRNRCRNGLGSVKDGEPHFVVVHCTGYIKAWPPAGVSLPDDDPEAGQGSKFCLVAIGRLQVTSSPNCTDMSNVCQPTEFISRHNIEGIFTFVDHRCVATVGYQPQELLGKNIVEFCHPEDQQLLRDSFQQVVKLKGQVLSVMFRFRSKNQEWLWMRTSSFTFQNPYSDEIEYIICTNTNVKNSSQEPRPTLSNTIQRPQLGPTANLPLEMGSGQLAPRQQQQQTELDMVPGRDGLASYNHSQVVQPVTTTGPEHSKPLEKSDGLFAQDRDPRFSEIYHNINADQSKGISSSTVPATQQLFSQGNTFPPTPRPAENFRNSGLAPPVTIVQPSASAGQMLAQISRHSNPTQGATPTWTPTTRSGFSAQQVATQATAKTRTSQFGVGSFQTPSSFSSMSLPGAPTASPGAAAYPSLTNRGSNFAPETGQTAGQFQTRTAEGVGVWPQWQGQQPHHRSSSSEQHVQQPPAQQPGQPEVFQEMLSMLGDQSNSYNNEEFPDLTMFPPFSE
B3: MOP2 (other)
chain: MTADKEKKRSSSERRKEKSRDAARCRRSKETEVFYELAHELPLPHSVSSHLDKASIMRLAISFLRTHKLLSSVCSENESEAEADQQMDNLYLKALEGFIAVVTQDGDMIFLSENISKFMGLTQVELTGHSIFDFTHPCDHEEIRENLSLKNGSGFGKKSKDMSTERDFFMRMKCTVTNRGRTVNLKSATWKVLHCTGQVKVYNNCPPHNSLCGYKEPLLSCLIIMCEPIQHPSHMDIPLDSKTFLSRHSMDMKFTYCDDRITELIGYHPEELLGRSAYEFYHALDSENMTKSHQNLCTKGQVVSGQYRMLAKHGGYVWLETQGTVIYNPRNLQPQCIMCVNYVLSEIEKNDVVFSMDQTESLFKPHLMAMNSIFDSSGKGAVSEKSNFLFTKLKEEPEELAQLAPTPGDAIISLDFGNQNFEESSAYGKAILPPSQPWATELRSHSTQSEAGSLPAFTVPQAAAPGSTTPSATSSSSSCSTPNSPEDYYTSLDNDLKIEVIEKLFAMDTEAKDQCSTQTDFNELDLETLAPYIPMDGEGFQLSPICPEERLLAENPQSTPQHCFSAMTNIFQPLAPVAPHSPFLLDKFQQQLESKKTEPERRPMSSIFFDAGSKASLPPCCGQASTPLSSMGGRSNTQWPPDPPLHFGPTKWAVGDQRTEFLGAAPLGPPVSPPHVSTFKTRSAKGFGARGPNVLSPAMVALSNKLKLKRQLEYEKQAFQDPSGGDPPGGSTSHLMWKRMKNLRGGSCPLMPDKPLSANVPNDKLTQNSMRGLGHPLRHLPLPQPPSAISPGENSKSRFPPQCYATQYQDYSLSSAHKVSGMASRLLGPSFESYLLPELTRYDREVKVPVLGSSTLLQGGDLLRALDQAT
notes: Complete ORF, in vitro translated (PL447) or transfected; also called HIF2α; huMOP2

How the values were obtained:
MOP1/HIF1α = MOP1/HIF1α (human, UniProt Q16665 1-826); test: cell-based or functional assay
MOP2 = target: B3; test: cell-based or functional assay
[1] = target: B1; test: cell-based or functional assay
[2] = target: B1; test: gel shift, heterodimer on TACGTG oligonucleotide
[3] = target: B1; test: yeast interaction trap (mating), X-Gal overlay
Method: Interaction Screen Against Known bHLH-PAS Proteins. LexAbHLH-PAS fusion proteins ("baits") of HIF1α, HIF2α, MOP3, MOP4, AHR, ARNT, and CLOCK were transformed into the L40 strain of yeast. The full-length ("fish") MOP3 and ARNT plasmids were transformed into the AMR70 yeast strain, and these transformants were plated onto yeast complete media plates (Kaiser et al., 1994, in *Methods in Yeast Genetics*, Cold Spring Harbor Press, Plainview, N.Y.). The L40 yeast harboring the bait constructs were replica plated onto these yeast complete media plates and mated for 8 hr at 30° C. The plates were then replica plated onto selective media and grown for an additional day at 30° C. 5-Bromo-4-chloro-3-indolyl […]-galactoside (X-Gal) overlay assays were performed to determine the relative expression of the lacZ reporter gene (Bohen and Yamamoto, 1993, PNAS 90: 11424–11428). Western blot analysis, using LexA-specific sera, was performed on extract from each transformant to confirm expression of the fusion protein (see Example 1).

[4] = target: T1, human aryl hydrocarbon receptor (AHR), full length (human, UniProt P35869 1-848); test: yeast two-hybrid, Galacto-Light lacZ assay, 1 µM βNF
T1 construct: Full length in yeast (PRSAHR) and in the Hsp90 co-IP (huAHR); also called huAHR; Ah receptor
T1 sequence (looked up): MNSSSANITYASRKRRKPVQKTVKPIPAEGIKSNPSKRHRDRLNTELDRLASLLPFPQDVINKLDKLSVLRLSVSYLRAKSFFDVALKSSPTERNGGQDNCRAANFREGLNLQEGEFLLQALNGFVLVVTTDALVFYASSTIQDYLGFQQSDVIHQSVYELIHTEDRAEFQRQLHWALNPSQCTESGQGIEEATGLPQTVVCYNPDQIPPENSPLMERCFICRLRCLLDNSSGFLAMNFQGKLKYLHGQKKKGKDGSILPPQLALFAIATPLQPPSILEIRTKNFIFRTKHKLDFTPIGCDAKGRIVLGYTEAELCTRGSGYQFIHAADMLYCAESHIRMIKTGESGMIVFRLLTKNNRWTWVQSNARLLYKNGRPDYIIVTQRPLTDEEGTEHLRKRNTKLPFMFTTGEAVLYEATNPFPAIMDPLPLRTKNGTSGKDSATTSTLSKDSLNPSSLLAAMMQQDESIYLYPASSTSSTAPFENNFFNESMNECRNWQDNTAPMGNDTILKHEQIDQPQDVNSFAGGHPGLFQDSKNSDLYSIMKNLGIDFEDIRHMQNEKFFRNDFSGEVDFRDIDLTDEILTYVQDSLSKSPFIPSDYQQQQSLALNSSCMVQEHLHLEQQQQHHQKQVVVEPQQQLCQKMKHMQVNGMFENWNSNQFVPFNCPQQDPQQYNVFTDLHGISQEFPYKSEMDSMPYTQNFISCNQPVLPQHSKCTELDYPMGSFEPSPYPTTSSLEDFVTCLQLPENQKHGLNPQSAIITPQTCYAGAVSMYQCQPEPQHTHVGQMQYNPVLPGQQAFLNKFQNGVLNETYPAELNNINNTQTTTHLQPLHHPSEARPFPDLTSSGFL
Description: (§1) This plasmid was designated PL371, and subsequently was digested with NotI and XhoI, this fragment cloned into the corresponding sites of pSGBCU11. This clone was designated PL574. The LexAMOP fusion protein constructs were cotransformed with a yeast expression vector containing the full length AHR or ARNT into L40, a yeast strain containing integrated lacZ and HIS3 reporter genes. As controls, LexAAHR and LexAARNT were cotransformed with AHR and ARNT. The strength of interaction was visually characterized by X-Gal (5-bromo-4-chloro-3-indolyl-(-D-galactoside) plate assays, performed after three days growth on selective media (Bohen et al, Proc. Natl. Acad. Sci. USA 90: 11424–11428, 1993). To provide quantitation of the interaction strength, multiple colonies from yeast harboring each bHLH-PAS combination colonies were grown overnight in liquid media. Liquid cultures were grown for 5 hours, and assayed for lacZ activity using the Galacto-Light chemiluminescence reporter system (Tropix, Bedford, Mass.). To determine the effect of AHR agonists on these interactions, yeast were also grown on plates or in liquid culture with and without 1 μM βNF (Carver et al., J. Biol. Chem. 269: 30109–30112, 1994).
(§2) 2. Interaction of MOPs with the AHR and ARNT in vivo; Yeast two-hybrid experiments. […]

[5] = target: T1, human aryl hydrocarbon receptor (AHR), …; test: yeast two-hybrid, Galacto-Light lacZ assay, with vs without 1 µM βNF
Description: as §1, §2

Sequence of MOP1/HIF1α (Q16665 whole entry): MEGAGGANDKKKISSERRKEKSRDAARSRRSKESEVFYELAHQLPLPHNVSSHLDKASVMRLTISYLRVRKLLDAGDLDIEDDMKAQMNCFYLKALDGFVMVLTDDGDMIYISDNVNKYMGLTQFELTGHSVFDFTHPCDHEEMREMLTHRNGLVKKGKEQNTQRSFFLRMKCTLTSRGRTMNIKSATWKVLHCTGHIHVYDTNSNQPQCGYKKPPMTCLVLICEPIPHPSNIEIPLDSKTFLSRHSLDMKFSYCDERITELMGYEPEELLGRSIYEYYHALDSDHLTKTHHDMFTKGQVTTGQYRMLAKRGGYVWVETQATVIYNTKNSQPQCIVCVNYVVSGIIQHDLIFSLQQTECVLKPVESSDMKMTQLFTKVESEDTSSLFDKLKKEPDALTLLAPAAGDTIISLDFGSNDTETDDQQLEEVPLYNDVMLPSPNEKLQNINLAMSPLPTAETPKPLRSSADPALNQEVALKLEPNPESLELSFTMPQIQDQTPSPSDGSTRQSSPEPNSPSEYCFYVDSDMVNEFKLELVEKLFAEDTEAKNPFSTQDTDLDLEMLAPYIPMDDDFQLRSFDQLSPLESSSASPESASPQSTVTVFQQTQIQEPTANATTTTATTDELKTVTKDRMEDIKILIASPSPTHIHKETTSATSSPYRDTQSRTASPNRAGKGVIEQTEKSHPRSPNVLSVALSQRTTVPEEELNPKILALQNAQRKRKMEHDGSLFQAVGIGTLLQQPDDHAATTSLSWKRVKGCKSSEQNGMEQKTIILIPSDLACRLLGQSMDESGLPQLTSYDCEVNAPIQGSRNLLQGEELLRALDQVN

B1
luciferase reporter with six copies of the M13 element, COS-1 cells (MOP1/HIF1α): 14.1 fold
luciferase reporter with six copies of the M13 element, COS-1 cells (MOP2): 8.1 fold

B2: mouse MOP7 (other)
chain: MDWDQDRSNTELRKEKSRDAARSRRSQETEVLYQLAHTLPFARGVSAHLDKASIMRLTISYLRMHRLCAAGEWNQVEKGGEPLDACYLKALEGFVMVLTAEGDMAYLSENVSKHLGLSQLELIGHSIFDFIHPCDQEELQDALTPRPNLSKKKLEAPTERHFSLRMKSTLTSRGRTLNLKAATWKVLHCSGHMRAYKPPAQTSPAGSPRSEPPLQCLVLICEAIPHPASLEPPLGRGAFLSRHSLDMKFTYCDERIAEVAGYSPDDLIGCSAYEYIHALDSDAVSRSIHTLLSKGQAVTGQYRFLARTGGYLWTQTQATVVSGGRGPQSESIICVHFLISRVEETGVVLSLEQTEQHTRRPPRLSASSQKGIPGNSVDSPAPRILAFLHPPALSEASLAADPRRFCSPDLRRLMAPILDGPPPAATPSTPQATRRPQSPLPADLPDKLAVGLENAHRLSTAQKNKTVETDLDIAQDSDTLDLEMLAPYISMDDDFQLNSSEQLPKVHRRPPRVARRPRARSFHGLSPPIPEPSLLPRWGSDPRLNCSSPSRGDRPTASLMPGTRKRALAQSSEDKGLELLEIKPPKRSPRLEPGSFLLPPLSLSFLLQGRQLLGNQQDPRAPLVHSHEPLGLAPSLLSLCQHEETVQPRNHFPPAAGLGQTH
luciferase reporter driven by six HRE enhancer elements, COS-1 cells [1]: 11.7 fold

B3
binding result [2]: binds

B4: LexAARNT (other, UniProt P0A7C2 1-202, looked up)
chain: MKALTARQQEVFDLIRDHISQTGMPPTRAEIAQRLGFRSPNAAEEHLKALARKGVIEIVSGASRGIRLLQEEEEGLPLVGRVAAGEPLLAQQHIEGHYQVDPSLFKPNADFLLRVSGMSMKDIGIMDGDLLAVHKTQDVRNGQVVVARIDDEVTVKRLKKQGNKVELLPENSEFKPIVVDLRQQSFTIEGLAVGVIRNGDWLMAATTANPEMTSDVPSLGPAIASGNSGPGIQGGGAIVQRAIKRRPGLDFDDDGEGNSKFLRCDDDQMSNDKERFARSDDEQSSADKERLARENHSEIERRRRNKMTAYITELSDMVPTCSALARKPDKLTILRMAVSHMKSLRGTGNTSTDGSYKPSFLTDQELKHLILEAADGFLFIVSCETGRVVYVSDSVTPVLNQPQSEWFGSTLYDQVHPDDVDKLREQLSTSENALTGRILDLKTGTVKKEGQQSSMRMCMGSRRSFICRMRCGSSSVDPVSVNRLSFVRNRCRNGLGSVKDGEPHFVVVHCTGYIKAWPPAGVSLPDDDPEAGQGSKFCLVAIGRLQVTSSPNCTDMSNVCQPTEFISRHNIEGIFTFVDHRCVATVGYQPQELLGKNIVEFCHPEDQQLLRDSFQQVVKLKGQVLSVMFRFRSKNQEWLWMRTSSFTFQNPYSDEIEYIICTNTNVKNSSQEPRPT
notes: range 1-202;domain: bHLH-PAS domains; Yeast two-hybrid bait; also called LexAbHLH-PAS fusion of ARNT; PL701
binding result [3]: no binding
fold above background (lacZ reporter activity) [4]: 14 fold
fold over the same pair in the absence of ligand [5]: 2 fold
